# Laboratory results as given in the supplement of paper PMC7826260.
# This is one part of the list. Cleavage of a single-stranded DNA pool by Rep nickase domains was read by sequencing for 1 h at 37 °C with 3 µM enzyme; only the middle of the 90-letter strands is printed. Values are log2 of uncut reads against the no-enzyme pool; more negative means more cut, near 0 not cut, and no call is made. Counts are relative to all reads; uncut strands gain when others are lost, and binding without cutting may add a little.
# Legend:
# Assay in all cases: uncleaved DNA left, log2 of reads against the no-enzyme library (log2 ratio); higher = less cleavage (more negative = more Rep cleavage of the k-mer); sequences stand for … in CTCGTCCG…ACCGGAGA
# [1] = test system: T1, Rep nickase domain of Muscovy duck circovirus
# T1 sequence (protein, residues 1-111, tag omitted): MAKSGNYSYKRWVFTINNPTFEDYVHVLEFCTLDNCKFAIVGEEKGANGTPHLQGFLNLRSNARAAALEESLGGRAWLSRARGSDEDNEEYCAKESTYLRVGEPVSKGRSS
# Experimental: (§1)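 A pool of 90-nt single-stranded DNAs with seven random bases just before the constant AC of the nick site (name = the seven bases) was cut by 3 µM recombinant His6-SUMO-tagged Rep nickase domain (300 nM DNA, 50 mM HEPES pH 8.0, 50 mM NaCl, 1 mM MnCl2, 1 h, 37 °C, three replicates). Uncut DNA was amplified and sequenced.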
# [2] = test system: T2, Rep nickase domain of banana bunchy top virus
# T2 sequence (protein, residues 1-94, tag omitted): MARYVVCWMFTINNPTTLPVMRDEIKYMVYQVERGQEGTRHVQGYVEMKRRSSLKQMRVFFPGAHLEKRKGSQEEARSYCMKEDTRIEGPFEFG
# Experimental: as §1
# [3] = test system: T3, Rep nickase domain of cabbage leaf curl virus
# T3 sequence (protein, residues 1-116, tag omitted): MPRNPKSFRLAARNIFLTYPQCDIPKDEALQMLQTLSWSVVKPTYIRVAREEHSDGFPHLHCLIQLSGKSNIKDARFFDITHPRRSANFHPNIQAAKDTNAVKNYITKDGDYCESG
# Experimental: as §1
# [4] = test system: T4, Rep nickase domain of chickpea chlorotic dwarf virus
# T4 sequence (protein, residues 1-124, tag omitted): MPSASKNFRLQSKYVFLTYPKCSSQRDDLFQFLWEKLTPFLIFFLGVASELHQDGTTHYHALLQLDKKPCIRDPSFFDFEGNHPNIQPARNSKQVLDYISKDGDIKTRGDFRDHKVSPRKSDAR
# Experimental: as §1
# [5] = test system: T5, Rep nickase domain of faba bean necrotic yellows virus
# T5 sequence (protein, residues 1-98, tag omitted): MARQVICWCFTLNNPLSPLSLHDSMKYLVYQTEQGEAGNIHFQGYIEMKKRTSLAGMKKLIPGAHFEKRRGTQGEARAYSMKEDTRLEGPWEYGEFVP
# Experimental: as §1
# [6] = test system: T6, Rep nickase domain of maize striate mosaic virus
# T6 sequence (protein, residues 1-117, tag omitted): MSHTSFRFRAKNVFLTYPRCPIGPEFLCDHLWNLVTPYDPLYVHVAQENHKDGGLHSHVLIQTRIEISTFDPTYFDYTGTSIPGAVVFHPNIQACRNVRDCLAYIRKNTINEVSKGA
# Experimental: as §1
# [7] = test system: T7, Rep nickase domain of porcine circovirus 2
# T7 sequence (protein, residues 2-116, tag omitted): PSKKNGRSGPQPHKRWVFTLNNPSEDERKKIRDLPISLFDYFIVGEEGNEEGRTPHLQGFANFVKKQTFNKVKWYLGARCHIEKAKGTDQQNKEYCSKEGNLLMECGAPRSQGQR
# Experimental: as §1
# [8] = test system: T8, Rep nickase domain of tomato golden mosaic virus
# T8 sequence (protein, residues 1-124, tag omitted): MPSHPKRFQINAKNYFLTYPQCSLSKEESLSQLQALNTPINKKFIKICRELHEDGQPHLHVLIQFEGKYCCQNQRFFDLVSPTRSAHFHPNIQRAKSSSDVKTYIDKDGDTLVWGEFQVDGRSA
# Experimental: as §1
# [9] = test system: T9, Rep nickase domain of tomato yellow leaf curl virus
# T9 sequence (protein, residues 1-136, tag omitted): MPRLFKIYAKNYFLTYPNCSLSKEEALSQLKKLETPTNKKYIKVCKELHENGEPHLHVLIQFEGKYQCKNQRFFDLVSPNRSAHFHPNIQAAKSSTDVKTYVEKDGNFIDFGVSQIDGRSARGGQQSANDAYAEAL
# Experimental: as §1
# [10] = test system: T10, Rep nickase domain of wheat dwarf virus
# T10 sequence (protein, residues 1-137, tag omitted): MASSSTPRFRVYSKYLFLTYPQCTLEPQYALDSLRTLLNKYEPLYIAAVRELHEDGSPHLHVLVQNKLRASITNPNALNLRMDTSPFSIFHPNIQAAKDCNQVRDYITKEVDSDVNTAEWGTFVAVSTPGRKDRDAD
# Experimental: as §1
Sequence,uncleaved DNA left (log2) [1],uncleaved DNA left (log2) [2],uncleaved DNA left (log2) [3],uncleaved DNA left (log2) [4],uncleaved DNA left (log2) [5],uncleaved DNA left (log2) [6],uncleaved DNA left (log2) [7],uncleaved DNA left (log2) [8],uncleaved DNA left (log2) [9],uncleaved DNA left (log2) [10]
CAGCACG,-0.0445,0.109,-0.773,-0.388,0.0787,-1.04,0.181,-0.0345,0.131,0.0102
ATAGACC,-0.033,0.181,0.0979,0.483,0.0671,0.21,0.0814,0.0547,0.0282,0.062
AACAGAT,0.0203,-0.0432,0.234,1.07,-0.0522,1.23,-0.0763,0.0393,-0.129,-0.00152
GCTCGAA,0.038,-0.107,0.032,0.322,-0.0907,-0.0765,-0.0472,-0.071,-0.113,-0.0889
ATTGAGT,0.0267,-0.033,-0.63,-0.686,0.124,-1.04,-0.0678,0.148,0.045,-0.157
CACACAC,0.00764,-0.0189,-0.0794,-0.393,-0.0539,-0.651,0.0745,-0.0625,-0.0704,-0.0275
GTTCGGA,0.108,0.0987,0.318,0.853,0.0389,1.14,0.181,0.062,-0.0126,0.101
CTCGCCG,-0.131,-0.182,-0.895,-0.658,-0.31,-0.928,-0.002,-0.166,-0.184,-0.27
TATCACC,0.0448,0.0314,0.166,-0.57,-0.092,-0.167,-0.246,-0.0148,0.0126,0.00673
CGCTTGA,0.117,-0.0936,-0.0405,0.129,0.0973,-0.382,0.0386,-0.0123,0.219,0.161
CCAGCGA,-0.0706,-0.126,-0.86,-0.288,-0.14,-0.738,0.000603,-0.0627,-0.101,-0.265
TCGAGCT,-0.0337,-0.0686,0.101,-0.0249,0.0087,0.228,-0.18,0.0172,-0.0589,-0.0346
ACGTAGC,0.115,0.0502,-0.537,-0.453,0.00228,-1.02,0.115,0.00965,0.0257,-0.11
AGATGAG,0.0589,0.0092,-0.761,-0.14,0.0621,-1.08,0.13,-0.00978,0.0936,-0.0655
CGCCAAA,0.0221,0.107,-0.0172,0.17,0.0195,-0.426,-0.0124,0.0475,-0.0288,0.114
GGCGCCT,-0.112,-0.0661,0.0605,0.471,-0.163,1.43,0.0184,-0.13,-0.151,-0.0094
CAAGCTT,-0.059,-0.11,-0.239,-0.83,0.196,1.43,0.0127,-0.0611,-0.00645,-0.101
AGTGATC,0.0376,-0.0299,0.0292,0.581,0.0345,0.915,0.0675,0.0318,-0.164,-0.0552
TTGTCTA,-0.0526,-0.024,0.0975,-0.503,0.0191,-0.0764,-0.245,-0.0643,-0.0108,-0.0587
TGTGAGG,0.153,-0.0536,0.403,1.02,0.021,1.17,-0.0237,0.0771,-0.0886,-0.0899
ATAGAAC,0.0439,-0.0879,3.04e-05,-0.329,-0.0533,-0.612,0.0029,0.0368,-0.0937,0.0054
TCCCAGA,-0.126,-0.0819,0.0466,-0.0476,-0.173,-0.582,0.059,-0.126,0.0172,-0.0552
CCTCGGG,0.143,0.00785,-0.138,0.085,-0.0188,-0.708,0.118,0.0456,0.084,-0.0309
GGTACGC,-0.00462,0.0437,0.7,1.71,-0.0883,2,0.138,0.0616,0.125,0.171
CAGACCC,-0.137,-0.0152,0.474,1.26,0.101,1.85,-0.0476,-0.0413,0.072,0.13
ACCTAGG,-0.174,-0.0595,-0.382,-0.0415,0.0452,-1.02,0.04,-0.0502,0.0567,-0.169
TGGATCC,-0.0104,0.139,0.337,0.954,0.0922,0.943,0.185,0.0362,0.22,0.182
TTGCCCC,-1.09,-0.489,-0.165,-0.514,-0.0183,-0.688,-2.24,-0.116,0.0537,0.0675
CACTCGA,-0.00455,0.0753,-0.561,-0.807,0.00381,-0.946,-0.0545,-0.0108,0.0274,-0.111
GTTGCCT,-0.0253,0.00807,0.0569,0.318,0.0251,0.397,-0.0433,0.0136,0.0692,0.105
